This is one part of the list.
T1: UNK ZnF1-6 (called full-length) (human, UniProt Q9C0B0 30-357)
T1 sequence: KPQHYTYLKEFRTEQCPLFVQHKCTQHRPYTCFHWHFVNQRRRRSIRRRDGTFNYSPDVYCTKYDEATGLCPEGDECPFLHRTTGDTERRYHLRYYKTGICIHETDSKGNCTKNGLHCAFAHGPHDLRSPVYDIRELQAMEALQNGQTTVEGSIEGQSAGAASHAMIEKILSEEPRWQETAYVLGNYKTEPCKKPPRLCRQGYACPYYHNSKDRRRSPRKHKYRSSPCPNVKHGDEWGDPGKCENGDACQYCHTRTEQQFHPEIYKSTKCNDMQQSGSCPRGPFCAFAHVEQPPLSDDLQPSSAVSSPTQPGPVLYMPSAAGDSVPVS

B1: chr3:154315110:154315224:-|CDS|ENSG00000174953|unk|FALSE|unique (ssRNA)
RNA: GGGAGUUCUACAGUCCGACGAUCUCAGAGAACAAACUUGACAUCCAGGAAAAGAAGUUGAUAAAUCAAGAAAAAAAAAUGUUUAGAAUCAGGAACAGAUCAUAUAUUGACCGAGAUUCUGAGUAUCUCUUGCAAGAAAAUGAACAACAGAGGAUUGAGCAUCA
B2: chr5:139390591:139392033:-|three_prime_utr|ENSG00000228672|control|control|control (ssRNA)
RNA: GGGAGUUCUACAGUCCGACGAUCAGGGCGUGGUGUGGUGUGGUGUGUGGGUGUGUGUAUAUGUGUAUAUGCGGGCAAGCAAAUAGGGAAAGUGAGGCAUCCCUGGGCUUGUCCCCAGGAGCCGAUCAGAGGAGGUGCUGUGGCCAACAGAGGAUUGAGCAUCA
B3: chr22:39522180:39522281:+|CDS|ENSG00000128272|msi1|FALSE|bound_elsewhere (ssRNA)
RNA: GGGAGUUCUACAGUCCGACGAUCGCUUACGUUGCCAUGAUCCCUCAGUGCAUAAAGGAGGAAGACACCCCUUCAGAUAAUGAUAGUGGCAUCUGUAUGAGCCCAGAGUCCUAUCUGGGGUCUCCUCAGCACAGCCCCUCUACCCAACAGAGGAUUGAGCAUCA
B4: chr4:185586528:185586629:-|3pUTR|ENSG00000154556|msi1|total|mutant (ssRNA)
RNA: GGGAGUUCUACAGUCCGACGAUCAUCCAUAUGAUAUGUUGUACAUUUUAUGGAAAUGUAACCGAAUCUCACACAUUAUUUUACCGAAACCGAGUACAGAAGCAUCACAAGUAUUAAAGUUGGUUUCCGCAAGGAUCCGGAUUACAACAGAGGAUUGAGCAUCA
B5: chr17:57839567:57839672:-|3pUTR|ENSG00000181610|unk|total|mutant (ssRNA)
RNA: GGGAGUUCUACAGUCCGACGAUCGGGUUGUCACAAAGCUCAGUAUCAUGGUUUGACAGAAGCAGUUAUGUGAACUUUUAUGUCCGGACAUUACUAAAUAAAGAAUUCCCCCGCUGCUUAUAAAGUAAAUUUACUUUGAAUUGUCAACAGAGGAUUGAGCAUCA
B6: chr22:29555535:29555644:-|3pUTR|ENSG00000184117|unk|FALSE|unique (ssRNA)
RNA: GGGAGUUCUACAGUCCGACGAUCUUCCUCAUCUCAAGGCCACCAGUCCCCAGUUAUCACCCUUGGAAAUCCUCUGUUUAGCUUAGUUGCACAAAAGGUAGUAUGUCCAGUGGCUAGAGGUGGGGUGGGAAGAGAGGAGGCCAGCAACAGAGGAUUGAGCAUCA
B7: chr10:33178043:33178144:-|3pUTR|ENSG00000099250|msi1|FALSE|unique (ssRNA)
RNA: GGGAGUUCUACAGUCCGACGAUCAAAUUGGAUUGAGAAUGCCUUUUGUUUCCAGGAAAAUAUUGAUCACCAUGAAAGAAGAAUAGUUUUUUGUCCCCAGAGACAUUCAUUUAGUUGAUAUAAUCCUACCAGAAGGAAAGCACUCAACAGAGGAUUGAGCAUCA
B8: ENSG00000070961:be:win_1451|CDS|ENSG00000070961|bound_else_gene|NA|bound_elsewhere_windowed (ssRNA)
RNA: GGGAGUUCUACAGUCCGACGAUCGAAUGACAGUCGUUCAAGCUUACAUAAAUGAAAAACAUUAUAAAAAGGUUCCUGAACCAGAAGCUAUUCCACCAAAUAUUUUGUCCUAUCUUGUAACAGGAAUUUCUGUGAAUUGUGCUUCAACAGAGGAUUGAGCAUCA
B9: chr2:75053604:75053755:-|CDS|ENSG00000115353|control|control|control (ssRNA)
RNA: GGGAGUUCUACAGUCCGACGAUCCUGUGUGACUGUGCUGAUCUACUUCCUCCCCCUGCUGGUGAUUGGCUAUGCAUACACCGUAGUGGGAAUCACACUAUGGGCCAGUGAGAUCCCCGGGGACUCCUCUGACCGCUACCACGACAACAGAGGAUUGAGCAUCA
B10: chrX:141908562:141908663:+|CDS|ENSG00000155495|unk|FALSE|unique (ssRNA)
RNA: GGGAGUUCUACAGUCCGACGAUCUCCUCGUUACGAAUUCCUGUGGGGUCCAAGAGCUCAUUCAGAAGUCAUUAAGAGGAAAGUAGUAGAGUUUUUGGCCAUGCUAAAGAAUACCGUCCCUAUUACCUUUCCAUCCUCUUACAACAACAGAGGAUUGAGCAUCA
B11: chr2:24789727:24790410:-|three_prime_utr|ENSG00000184924|control|control|control (ssRNA)
RNA: GGGAGUUCUACAGUCCGACGAUCUUAAUAAGUUCAAGUGGGGAAGGUGGGAGAGCAGUAUUGUCUGGGGAUCAUUGCUCAAAUAGAAGAUUUGGUUAGACUCUCCUGUGGGGCUCAAGGAAACUCCCUUCCAGUCACUCGGGUCAACAGAGGAUUGAGCAUCA
B12: chr8:52158897:52159109:-|CDS|ENSG00000147488|control|control|control (ssRNA)
RNA: GGGAGUUCUACAGUCCGACGAUCCCAGAGCCCUGGCCGUGCCAGCUCUUAUAGCUACGGUCAAUGUAGUGAAGACACCCACAUAGCAGCAGCUGCUGCCAUCCUGAACCUUUCCACCCGCUGCAGGGAAGCCACAGACAUCCUCAACAGAGGAUUGAGCAUCA
B13: chr7:137014887:137014989:+|CDS|ENSG00000181072|unk|total|mutant (ssRNA)
RNA: GGGAGUUCUACAGUCCGACGAUCGCUACUUGGCUACUGAUCCGAGAACGCAAAAUGAAUAACUCAACAAACUCCUCUAACAACCGCCUGGCUCUUACAAGUCCUUAUAAGACAUUUGAAGUGGUGUUUAUUGUCCUGGUGGCUCAACAGAGGAUUGAGCAUCA
B14: chr1:173734013:173734119:+|CDS|ENSG00000076321|unk|total|mutant (ssRNA)
RNA: GGGAGUUCUACAGUCCGACGAUCCAUUGACGAGAGGGCUAUGGAAUUACUGAUUGACUUUGCGUAUACCUCCCAGAUAACAGCCGAAGAGGGCAAUGUUCAGACUCUUCUGCCAGCUGCUUGCCUCCUCCAGCUGGCAGAAAUCAACAGAGGAUUGAGCAUCA
B15: chr18:55226207:55226308:-|3pUTR|ENSG00000196628|unk|FALSE|unique (ssRNA)
RNA: GGGAGUUCUACAGUCCGACGAUCAUUUUUACAGCCACACAAUUCUUGGCAUGUAUUAAGAAAAAAAAAAAUCCCUGUUCAAGUAGUUUUUCCACCUAUCAGCACUGAGUAAAUGCCAUAAAUCCAUUGAAAUGGUCUAAAUGUCAACAGAGGAUUGAGCAUCA
B16: chr5:36975901:36976008:+|CDS|ENSG00000164190|unk|FALSE|unique (ssRNA)
RNA: GGGAGUUCUACAGUCCGACGAUCAUGAAAUUAGGCAAGGAUGAAAAAGAGCAGAGUGAGAAAGCGGCAAUGUAUGAUAUAAUUAGUUCUCCAUCCAAGGACUCUACUAAACUUACAUUAAGACUUUCUCGUGUAAGGUCUUCACAACAGAGGAUUGAGCAUCA
B17: ENSG00000080224:stop:overlap|stop_codon|ENSG00000080224|stop_codon|NA|stop_codon (ssRNA)
RNA: GGGAGUUCUACAGUCCGACGAUCGUACAGGAUAUGAAGAAAUUGAGGGUUCUUGCCAUGGAGCCUCCAAAGGCCGCUGCUUCUAGUUGGCCAUCUUGGCCCCACCCCGAAACAGUAACCUUUGAAGAAUAAAAGAAAAAGCAACAACAGAGGAUUGAGCAUCA
B18: ENSG00000198589:be:win_3001|CDS|ENSG00000198589|bound_else_gene|NA|bound_elsewhere_windowed (ssRNA)
RNA: GGGAGUUCUACAGUCCGACGAUCCUAGAAUCUGCAUCUAAUAUUGAACUGCAAACUACUAAUACAUCUUAUGAAGAAAUGAAAGCUGAGCAAGAAAAUCAGGAGUUACCAGAUGAAGGCACUUUGGAAGAAACACUGACAAAUCAACAGAGGAUUGAGCAUCA
B19: chr11:2928445:2928542:-|3pUTR|ENSG00000181649|msi1_unk|total|mutant (ssRNA)
RNA: GGGAGUUCUACAGUCCGACGAUCAUUGGACUAUCUAAUAUCUAUGUAUUUAUUUCGCUGGUUCUUUGCCGUCACAUAUUUUACCGUCUUAAUAUCUUGUUUUUGCAUCACUGUGCCCAUUGCAAAUAAAUCACUUGGCCAGUUCAACAGAGGAUUGAGCAUCA
B20: chr6:109506326:109506547:-|CDS|ENSG00000155085|control|control|control (ssRNA)
RNA: GGGAGUUCUACAGUCCGACGAUCAAUAGUGCACAAAUUGUAGCUGUCAAUAAUGUAAAGUAUCGCAAAAAUAUUGGUGAGAUUAGGCAAUAUUAUCAAGAACAGCAUCAGAACUGGUAUGUGAUUGAUGGAUUUCACAGCAAACAACAGAGGAUUGAGCAUCA
B21: chr2:25742488:25742589:-|CDS|ENSG00000143970|unk|total|mutant (ssRNA)
RNA: GGGAGUUCUACAGUCCGACGAUCCACUUUAAGUAAGGAGAAUUACCUGUUCACCCGAGGCCAAACAUUUGAUGAAAAGACCCCCGCCAGAGAUUUAAUUCAGGCAGCACAGAAGCAGAUGGCUCAUGCAGUGAGAGGUAAGGCCAACAGAGGAUUGAGCAUCA
B22: chrX:120613669:120613770:+|3pUTR|ENSG00000232119|msi1|FALSE|bound_elsewhere (ssRNA)
RNA: GGGAGUUCUACAGUCCGACGAUCUAUGCCUCCUGUAUAUCCUGUAAACAAAUAAGAUUGAUCAGAUUCAGGUUCAGUUUUUUUAGUGCCUUCUUUUGAGUAAAGUCAUACCAAACAGAUGCCCAGAACAUCUGGAUUUGGGUCCAACAGAGGAUUGAGCAUCA

Each binder was assayed against T1, UNK ZnF1-6 (called full-length) (assay: nsRBNS (natural sequence RNA bind-n-seq); RBNS binding buffer (assumed for nsRBNS): 25 mM Tris pH 7.5, 150 mM KCl, 3 mM MgCl2, 0.01% Triton X-100, 500 ug/ml BSA, 20 U/ml SUPERase-In, 4 C; UNK is unkempt and MSI1 is Musashi-1; names of the RNAs are library labels; protein concentration not given here; high values mean tight binding).
B1 was tested, and the binding signal was 0.511 enrichment R. Binder B2 has a binding signal of 1.13 enrichment R. With B3 the binding signal was 0.588 enrichment R. Binder B4 has a binding signal of 0.52 enrichment R. B5 was tested, and the binding signal was 0.579 enrichment R. B6 showed a binding signal of 1.06 enrichment R. B7 showed a binding signal of 0.932 enrichment R. With B8 the binding signal was 0.349 enrichment R. B9 showed a binding signal of 0.902 enrichment R. B10 showed a binding signal of 0.393 enrichment R. B11 gave a binding signal of 0.928 enrichment R. B12 showed a binding signal of 0.674 enrichment R. For B13, the binding signal was 0.461 enrichment R. B14 was tested, and the binding signal was 0.626 enrichment R. Binder B15 has a binding signal of 0.438 enrichment R. Work on B16 yielded a binding signal of 0.413 enrichment R. B17 showed a binding signal of 0.606 enrichment R. B18 showed a binding signal of 0.413 enrichment R. B19 gave a binding signal of 1.11 enrichment R. B20 was tested, and the binding signal was 0.577 enrichment R. B21 showed a binding signal of 0.721 enrichment R. With B22 the binding signal was 0.45 enrichment R.
